In this assay the test system is MLKL phosphorylation, HT29-L23 human colorectal adenocarcinoma cells. As to the kind of experiment: cells. As to conditions: read-out: pMLKL HCS Cell Assay (IC50, uM).
In the case of `CCOC(=O)N1C[C@H](F)[C@H](NC(=O)c2cc(-c3cc(CN4CCC(F)(F)CC4)c4c(N)ncnn34)cnc2OC)C1` [Example 1500, ethyl (3R,4S)-3-(5-{4-amino-5-[(4,4-difluoropiperidin-1-yl)methyl]pyrrolo[2,1-f][1,2,4]triazin-7-yl}-2-methoxypyridine-3-amido)-4-fluoropyrrolidine-1-carboxylate], the IC50 – broadly, the concentration at which inhibition is half-maximal – was 0.0014 µM. For the compound `COc1ncc(-c2cc(CN3CCc4ccccc4C3)c3c(N)ncnn23)cc1C(=O)N[C@@H]1CN(C(=O)[C@@](C)(O)C(F)(F)F)C[C@@H]1F` [Example 1600, 5-{4-amino-5-[(1,2,3,4-tetrahydroisoquinolin-2-yl)methyl]pyrrolo[2,1-f][1,2,4]triazin-7-yl}-N-[(3R,4S)-4-fluoro-1-[(2R)-3,3,3-trifluoro-2-hydroxy-2-methylpropanoyl]pyrrolidin-3-yl]-2-methoxypyridine-3-carboxamide], the IC50 was found to be 0.0016 µM. As to `Cc1nc(C)c(-c2cc(C(F)(F)F)c3c(N)ncnn23)cc1C(=O)N[C@@H]1CN(C(=O)c2ccc(F)c(F)c2)C[C@@H]1F` [Example 1198, 5-[4-amino-5-(trifluoromethyl)pyrrolo[2,1-f][1,2,4]triazin-7-yl]-N-[(3R,4S)-1-(3,4-difluorobenzoyl)-4-fluoropyrrolidin-3-yl]-2,6-dimethylpyridine-3-carboxamide], the IC50 turned out to be 0.067 µM.

As to `Cc1ccc(-c2cc(C(F)(F)F)c3c(N)ncnn23)cc1C(=O)N[C@@H]1CN(C(=O)c2c(F)cc(F)cc2F)C[C@@H]1F` [Example 1024, 5-[4-amino-5-(trifluoromethyl)pyrrolo[2,1-f][1,2,4]triazin-7-yl]-N-[(3R,4S)-4-fluoro-1-(2,4,6-trifluorobenzoyl)pyrrolidin-3-yl]-2-methylbenzamide], the IC50 is 0.00075 µM. On to `COc1ncc(-c2cc(C(F)(F)F)c3c(N)ncnn23)cc1C(=O)N[C@@H]1CN(C(=O)C2(F)CC2)C[C@@H]1F` [Example 331, 5-[4-amino-5-(trifluoromethyl)pyrrolo[2,1-f][1,2,4]triazin-7-yl]-N-[(3R,4S)-4-fluoro-1-(1-fluorocyclopropanecarbonyl)pyrrolidin-3-yl]-2-methoxypyridine-3-carboxamide], for which the 50% inhibitory concentration (IC50) was 0.027 µM. `CCC(O)(C(=O)N1C[C@H](F)[C@H](NC(=O)c2cc(OC)cc(-c3cc(C(F)(F)F)c4c(N)ncnn34)c2)C1)C(F)(F)F` (stereo partly drawn) [Example 582, 3-[4-amino-5-(trifluoromethyl)pyrrolo[2,1-f][1,2,4]triazin-7-yl]-N-[(3R,4S)-4-fluoro-1-[2-hydroxy-2-(trifluoromethyl)butanoyl]pyrrolidin-3-yl]-5-methoxybenzamide]: the IC50 was 0.0054 µM. For `CC(C)(O)C(=O)N1C[C@H](F)[C@H](NC(=O)c2cc(-c3cc(C(F)(F)F)c4c(N)ncnn34)ccc2C(F)(F)F)C1` [Example 897, 5-[4-amino-5-(trifluoromethyl)pyrrolo[2,1-f][1,2,4]triazin-7-yl]-N-[(3R,4S)-4-fluoro-1-(2-hydroxy-2-methylpropanoyl)pyrrolidin-3-yl]-2-(trifluoromethyl)benzamide], the IC50 was 0.482 µM. `COc1ncc(-c2cc(CN3CC(C)(C)C3)c3c(N)ncnn23)cc1C(=O)N[C@@H]1CN(C(=O)[C@@](C)(O)C(F)(F)F)C[C@@H]1F` [Example 1584, 5-{4-amino-5-[(3,3-dimethylazetidin-1-yl)methyl]pyrrolo[2,1-f][1,2,4]triazin-7-yl}-N-[(3R,4S)-4-fluoro-1-[(2R)-3,3,3-trifluoro-2-hydroxy-2-methylpropanoyl]pyrrolidin-3-yl]-2-methoxypyridine-3-carboxamide]: the IC50 was found to be 0.0019 µM. Regarding `Cc1ncc(-c2cc(C(F)(F)F)c3c(N)ncnn23)cc1C(=O)N[C@@H]1CN(C(=O)C2CCCC2)C[C@@H]1C` [Example 175, 5-[4-amino-5-(trifluoromethyl)pyrrolo[2,1-f][1,2,4]triazin-7-yl]-N-[(3S,4S)-1-cyclopentanecarbonyl-4-methylpyrrolidin-3-yl]-2-methylpyridine-3-carboxamide], the IC50 turned out to be 0.029 µM. For the compound `Cc1cc(F)c(-c2cc(C(F)(F)F)c3c(N)ncnn23)cc1C(=O)N[C@@H]1CN(C(=O)c2ccc(F)cn2)C[C@@H]1F` [Example 821, 5-[4-amino-5-(trifluoromethyl)pyrrolo[2,1-f][1,2,4]triazin-7-yl]-4-fluoro-N-[(3R,4S)-4-fluoro-1-(5-fluoropyridine-2-carbonyl)pyrrolidin-3-yl]-2-methylbenzamide], the IC50 was determined as 0.0018 µM.

Regarding `COc1ncc(-c2c(F)cc3c(N)ncnn23)cc1C(=O)N[C@@H]1CN(C(=O)C2CCC(F)(F)CC2)C[C@@H]1F` [Example 510, 5-{4-amino-6-fluoropyrrolo[2,1-f][1,2,4]triazin-7-yl}-N-[(3R,4S)-1-(4,4-difluorocyclohexanecarbonyl)-4-fluoropyrrolidin-3-yl]-2-methoxypyridine-3-carboxamide], the IC50 came out at 0.099 µM. For `Cc1ncc(-c2cc(C(F)(F)F)c3c(N)ncnn23)cc1C(=O)N[C@@H]1CN(C(=O)[C@@H](O)CC(C)C)C[C@@H]1F` [Example 365, 5-[4-amino-5-(trifluoromethyl)pyrrolo [2,1-f][1,2,4]triazin-7-yl]-N-[(3R,4S)-4-fluoro-1-[(2S)-2-hydroxy-4-methyl-pentanoyl]pyrrolidin-3-yl]-2-methyl-pyridine-3-carboxamide], the IC50 was found to be 0.121 µM. As for `Nc1ncnn2c(-c3cccc(C(=O)N[C@@H]4CN(C(=O)c5c(F)cncc5F)C[C@@H]4F)c3)cc(C(F)(F)F)c12` [Example 94, 3-[4-amino-5-(trifluoromethyl)pyrrolo[2,1-f][1,2,4]triazin-7-yl]-N-[(3R,4S)-1-(3,5-difluoropyridine-4-carbonyl)-4-fluoropyrrolidin-3-yl]benzamide], the IC50 turned out to be 0.012 µM. Take `COc1ncc(-c2cc(C(F)F)c3c(N)ncnn23)cc1C(=O)N[C@@H]1CN(C(=O)[C@@](C)(O)C(F)(F)F)C[C@@H]1F` [Example 1602, 5-[4-amino-5-(difluoromethyl)pyrrolo[2,1-f][1,2,4]triazin-7-yl]-N-[(3R,4S)-4-fluoro-1-[(2R)-3,3,3-trifluoro-2-hydroxy-2-methylpropanoyl]pyrrolidin-3-yl]-2-methoxypyridine-3-carboxamide]: the IC50 was 0.0095 µM.

With `Cc1ccc(-c2cc(C(F)(F)F)c3c(N)ncnn23)cc1C(=O)N[C@@H]1CN(C(=O)c2ncc(F)cc2F)C[C@@H]1F` [Example 1007, 5-[4-amino-5-(trifluoromethyl)pyrrolo[2,1-f][1,2,4]triazin-7-yl]-N-[(3R,4S)-1-(3,5-difluoropyridine-2-carbonyl)-4-fluoropyrrolidin-3-yl]-2-methylbenzamide], the IC50 came out at 0.009 µM.

With `Cc1ncc(-c2cc(C(F)(F)F)c3c(N)ncnn23)cc1C(=O)NCC(C)(O)C(=O)c1ccc(F)cc1` (centres unmarked) [Example 1756, 5-(4-amino-5-(trifluoromethyl)pyrrolo[2,1-f][1,2,4]triazin-7-yl)-N-(3-(4-fluorophenyl)-2-hydroxy-2-methyl-3-oxopropyl)-2-methylnicotinamide], the IC50 was determined as 0.0032 µM.

`COc1ncc(-c2cc(C(F)(F)F)c3c(N)ncnn23)cc1C(=O)N[C@@H]1CN(C(=O)c2ccc(F)cc2)C[C@@H]1F` [Example 43, 5-[4-amino-5-(trifluoromethyl)pyrrolo[2,1-f][1,2,4]triazin-7-yl]-N-[(3R,4S)-4-fluoro-1-(4-fluorobenzoyl)pyrrolidin-3-yl]-2-methoxypyridine-3-carboxamide]: the IC50 came out at 0.011 µM.

The record behind these values is US11618753B2 (priority 2018, dated 2023).
